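Interpolation was linear, between the two tested concentrations surrounding the appropriate level; five concentrations were tested over 48 hours in 96-well plates. GI50 is the concentration that inhibits growth by half.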 Activity calls are given as the source filed them. Rule as the data show it: active = GI50 up to about 1.1 µM and inactive = higher.
system: NCI-H322M; test: DTP human tumour cell line panel, 48 h

| Structure (SMILES) | GI50 |
| --- | --- |
| O=C(O)c1ccc(CI)cc1 | inactive: 33 µM |
| NC(CC(=O)Nc1cc(C(F)(F)F)ccc1Cl)=NO | inactive: > 100 µM |
| S=C1NCN2CCN(CC2)CNC(=S)C(=S)NCN2CCN(CC2)CNC1=S | inactive: 56.8 µM |
| Cc1cccc2cc3ccc4ccccc4c3cc12 | inactive: 70.1 µM |
| CCN(CC)C1Oc2cc3c(cc2C(c2cccc(OC)c2O)C1C)OCO3 (configuration not stated) | inactive: 4.88 µM |
| O=C1NC(c2cccc(OCc3ccccc3)c2)Nc2ccccc21 (configuration not stated) | active: 0.847 µM |
| CCOC(=O)CCC(NC(=O)c1ccc(Nc2nc3ccccc3nc2C(=O)OCC)cc1)C(=O)OCC (configuration not stated) | inactive: 14.3 µM |
| CC(=O)OCC1=C(CCC#N)N2C(=O)C(NC(=O)Cc3cccs3)C2[S+]([O-])C1 (configuration not stated) | inactive: > 100 µM |
| CCC(O)c1ccc(/N=C/c2ccccc2O)cc1 (configuration not stated) | inactive: > 100 µM |
| O=c1[nH]n(Cc2ccccc2Cl)c2ccc([N+](=O)[O-])cc12 | inactive: > 100 µM |
| CN(CCCNC(=O)c1nn(-c2ccc(Cl)cc2Cl)c2c1Cc1ccccc1-2)CCCNC(=O)c1nn(-c2ccc(Cl)cc2Cl)c2c1Cc1ccccc1-2 | inactive: 1.76 µM |
| O=C(ON=c1c2ccccc2ccc2ccccc12)c1ccccc1 | inactive: 36.6 µM |
| CSc1csc(-c2ccc(-c3ccc(-c4cc(SC)cs4)s3)s2)c1 | inactive: > 100 µM |
| CC(C)CCC[C@@H](C)[C@H]1CC[C@H]2[C@@H]3CC=C4CC(OCCCCN(O)CCCSC5OC(CO)C(O)C(O)C5O)CC[C@]4(C)[C@H]3CC[C@]12C (some centres not stated) | inactive: 71.3 µM |
| Clc1ccc(CCNC2(c3cc4ccccc4s3)CCCCC2)cc1Cl | inactive: 42.7 µM |
| COC(=O)[C@H]1[C@H](C(=O)OC)[C@@H](C)c2c(ccc3c2[nH]c2ccccc23)[C@@H]1C | inactive: > 100 µM |
| S=C(Nc1cccc(C2(N3CCCCC3)CCCCC2)c1)Nc1cccc(C2(N3CCCCC3)CCCCC2)c1 | inactive: 31.9 µM |
| O=C1OC2(C(F)(F)F)Oc3ccccc3CN2C12CCCCC2 (configuration not stated) | inactive: 40.3 µM |
| CCOC(=O)C1=C(Nc2cccc3ccccc23)OCC1=O | inactive: > 100 µM |
| O=C(Nc1ccc(Cl)cc1)Oc1ccc(C(=S)Nc2ccc(Br)cc2)cc1 | inactive: 12.3 µM |
| CN1NC2(CCCCC2)ON=C1c1ccccc1 | inactive: > 100 µM |
| Cc1ccc(S(=O)(=O)N(CCN2C(=O)c3ccccc3C2=O)c2cc3c4c(c2)Oc2cc(N(CCN5C(=O)c6ccccc6C5=O)S(=O)(=O)c5ccc(C)cc5)cc5c2C4(C)c2c(cc(N(CCN4C(=O)c6ccccc6C4=O)S(=O)(=O)c4ccc(C)cc4)cc2O5)O3)cc1 | inactive: 69.8 µM |
| O=c1ss/c(=N\c2ccccc2)n1-c1ccccc1 | inactive: > 100 µM |

| Structure (SMILES) | GI50 |
| --- | --- |
| CC(=O)c1cccc(NCn2nnc3ccccc32)c1 | inactive: > 100 µM |
| CCOC(=O)[C@@]12C(C)=CC(=O)O[C@]1(C)C[C@H]2C#N | inactive: 35.1 µM |
| O=C1c2cccc3cc([N+](=O)[O-])cc(c23)C(=O)N1CCNCCNCCNCCN1C(=O)c2cccc3cc([N+](=O)[O-])cc(c23)C1=O | active: 0.0074 µM |
| NC(=O)C1Cc2cc3c(cc21)OCO3 (configuration not stated) | inactive: > 100 µM |
| CCCCCCCC1C(C)c2c([nH]c3ccccc23)C2C(=O)N(c3ccc(OC)cc3)C(=O)C21 (configuration not stated) | inactive: 3.13 µM |
| COC(C(O)CO)C(O)C(O)C(=O)NNc1ccccc1 (configuration not stated) | inactive: 42.9 µM |
| CCO/C=C1\SC(=S)N(c2ccc(OCC)cc2)C1=O | inactive: > 100 µM |
| OC/C=C/[C@H](OCc1ccccc1)[C@H](/C=C/CO)OCc1ccccc1 | inactive: 69.2 µM |
| O=C1c2cc([N+](=O)[O-])cnc2S(=O)(=O)N1c1ccc(Br)cc1 | inactive: > 100 µM |
| Nc1ncnc2c1ncn2C1OC(CSCc2ccc(Cl)cc2)C(O)C1O (configuration not stated) | inactive: > 100 µM |
| Cc1cc(=O)oc2c(C3=NN(C=O)C(c4ccccc4)C3)c(O)ccc12 (configuration not stated) | inactive: > 77.4 µM |
| CC(C(=O)O)c1cnn(-c2ccccc2)c1-n1cccc1 (configuration not stated) | inactive: > 100 µM |
| CCOC(=O)c1cc(Br)c(-c2onc(C)c2Br)n1C | inactive: > 100 µM |
| COc1ccc(C(=C[N+](=O)[O-])c2ccc(OC)cc2)cc1 | inactive: 28.2 µM |
| O=S1(=O)COc2ccccc2-c2ncncc21 | inactive: > 100 µM |
| C[C@]12CC[C@H](O)C=C1CC[C@@H]1[C@@H]2CC[C@]2(C)C(c3ccc(=O)oc3)CC[C@]12O (some centres not stated) | active: 0.0162 µM |
| COc1cc2c(cc1OC)CCc1cc(OC)c(OC)cc1CC2 | inactive: > 100 µM |
| CC1CC(=O)Nc2ccc(/N=N/N(C)C)cc2N1C=O (configuration not stated) | inactive: > 100 µM |
| c1cnn(C23C4C5C6C4C2C6C53)c1 (configuration not stated) | inactive: > 100 µM |
| CSc1c(C(=O)Nc2ccc(C)cc2)c(N)nn1-c1ccccc1 | inactive: 88.9 µM |
| CC1=C(C(=O)CC(=O)C(=O)Nc2cccc(C)c2C)Sc2ccccc2N1 | inactive: > 100 µM |
| Cc1ccc(-c2cc(-c3ccc(Cl)cc3)nc(/N=C3\C(=O)N(CN(C)C)c4ccccc43)n2)cc1 | inactive: 96.8 µM |
| Oc1c(CN2CCOCC2)ccc2cccnc12 | inactive: > 10 µM |

| Structure (SMILES) | GI50 |
| --- | --- |
| CN(C)c1c([O-])c(=[N+](C)C)c1=O | inactive: > 100 µM |
| O=C1OCC(c2ccc(Cl)cc2)=C1Cl | inactive: 18.4 µM |
| O=C(N/N=C(COc1ccccc1)\N=C\c1cccnc1)c1ccncc1 | inactive: > 100 µM |
| CNC(=O)N(C)C(=O)c1ccccc1C(=O)N(C)C(=O)NC | inactive: > 10 µM |
| COc1ccc(OC)c(NC(=O)c2c(Cl)c(Cl)c(Cl)c(Cl)c2-c2nc3ccccc3[nH]2)c1 | inactive: > 100 µM |
| NC(=O)CCC(NC(=O)C(F)(F)F)C(=O)O (configuration not stated) | inactive: > 100 µM |
| O=C1C=Cc2cscc21 | inactive: > 100 µM |
| CCOC(=O)C1C(c2ccc(Br)cc2)N(Cc2ccccc2)C(c2ccc(Br)cc2)C(C(=O)OC)S1(=O)=O (configuration not stated) | inactive: 61.8 µM |
| CCCCOCc1cc(CN2CCN(C)CC2)c(O)c2ncccc12 | inactive: 19.6 µM |
| CCC(=O)N/N=C(\C=C\c1cccc(O)c1)c1sc(Nc2ccc(C)cc2[N+](=O)[O-])nc1C | inactive: > 100 µM |
| Cc1cc(N2CCCCC2)nc2ccc(Cc3ccc4nc(N5CCCCC5)cc(C)c4c3)cc12 | inactive: > 100 µM |
| Cc1c(C2CCSc3ccccc3N2)sc2ccccc12 (configuration not stated) | inactive: > 100 µM |
| C[C@@H]1CC[C@@]2(C)C(C(=O)O)=CCCC2[C@@]1(C)CC(=O)c1ccoc1 (some centres not stated) | inactive: > 25 µM |
| CC(C)c1ccc(/C=C2\N=C(c3ccc([N+](=O)[O-])cc3)OC2=O)cc1 | inactive: > 100 µM |
| COC1=C(OC)C(=O)C(Cc2c(C)nc3sccn23)=C(C)C1=O | inactive: 18.1 µM |
| CCCCCCCCCCCCCC(=O)O.O=CC(O)C(O)C(OC1OC(CO)C(O)C(O)C1O)C(O)CO (configuration not stated) | inactive: 41.5 µM |
| COCCOCOc1ccc(OCOCCOC)c2c1C(=O)c1ccccc1C2=O | inactive: 67.1 µM |
| c1ccc(/N=C(\N2CCOCC2)N(CCN2CCOCC2)c2ccccc2)cc1 | inactive: > 100 µM |
| CC(=O)OC1C2CCC1C1C2C2(Cl)C(Cl)=C(Cl)C1(Cl)C2(Cl)Cl (configuration not stated) | inactive: 20.8 µM |
| COC(=O)CCC(NC(=S)N/N=C/c1ccccn1)C(=O)OC (configuration not stated) | inactive: > 100 µM |
| COc1ccccc1C1=C2C(=O)N(C)C(c3ccccc3OC)=C2C(=O)N1C | inactive: > 100 µM |
| Cc1cc2ccccc2n2c1nc1ccccc12 | inactive: > 100 µM |
| Cc1c2cnccc2c(C)c2c1c1ccccc1n2CCCN | active: 0.2 µM |

| Structure (SMILES) | GI50 |
| --- | --- |
| O=C1N/C(=N\N=C\c2ccccc2)C2(CCCCC2)O1 | inactive: 96.2 µM |
| CC(=O)/C=C/CCC(=O)/C=C/C(=O)OC(CCC(=O)/C=C/C(=O)O)CC(C)=O (configuration not stated) | inactive: > 100 µM |
| COC(=O)C1=C(C(=O)OC)C2(C)CCC(=O)C1O2 (configuration not stated) | inactive: > 10 µM |
| CCOC(=O)C1(C/C=C\CBr)CCCCCCCCCCC1=O (configuration not stated) | inactive: 17.3 µM |
| c1c[nH]c(Cc2nc(Cc3c[nH]cn3)c[nH]2)n1 | inactive: 12.6 µM |
| CCC(C#N)NC(=O)NC(C#N)CC (configuration not stated) | inactive: > 100 µM |
| CC(=O)C(C(=O)C(C)(C)C)C(=O)C(C)(C)C | inactive: > 100 µM |
| Oc1c(CNCCCN2CCCC2)cc(Cl)c2cccnc12 | inactive: 6.47 µM |
| Cc1nc(-c2ccccc2)cc2c1c(=O)oc1ccccc12 | inactive: > 100 µM |
| CC(=O)Oc1ccc2c3c1[C@@H]1O[C@@H]1c1cccc(c1-3)[C@@H]1O[C@H]21 | inactive: 7.13 µM |
| CC(C)=CCN=C(N)N | inactive: > 100 µM |
| COC(=O)[C@H](Cc1ccccc1)NC(=O)c1ccc(CNC(=O)/C=C/c2csc(-c3ccccc3)n2)cc1 | inactive: 11.6 µM |
| COCN1COCN/C1=N\C#N | inactive: > 100 µM |
| N#CCc1ccc(C(C#N)/C(CCCC(=O)Nc2cccc([N+](=O)[O-])c2)=N\NC(=O)NN)cc1 (configuration not stated) | inactive: > 100 µM |
| CC1(C)CC[C@]2(C(=O)O)CC[C@]3(C)C(=CC[C@@H]4[C@@]5(C)CC[C@H](OC6OC(CO)C(O)C(O)C6O)C(C)(C)[C@@H]5CC[C@]43C)[C@@H]2C1 (some centres not stated) | inactive: 1.62 µM |
| Cc1cc(C)c2c(=O)n(CN3CC4Nc5ccccc5C4C3)sc2n1 (configuration not stated) | inactive: 71.3 µM |
| CC1(C)COC(C2(C)C(=O)C=C(c3ccccc3)c3ccccc32)=N1 (configuration not stated) | inactive: > 100 µM |
| COc1ccc2c(c1OC)C(Br)CCC(Br)(Br)C2=O (configuration not stated) | inactive: 17.1 µM |
| COc1ccc(C[C@@H](C(=O)O[C@H](C)[C@H](NC(=O)[C@@H](CC(C)C)N(C)C(=O)C2CCCN2C(=O)[C@H](C)O)C(=O)N2CCCCNC(=O)[C@@H](C)C(=O)[C@H](C(C)C)OC(=O)C[C@H](O)[C@H]2CC(C)C)N(C)C(C)=O)cc1 (some centres not stated) | inactive: 13.3 µM |
| CC(C)(O)C1CC[C@]2(C)CC[C@]3(C)[C@H](CC[C@@H]4[C@@]5(C)CC[C@H](O)C(C)(C)[C@@H]5CC[C@]43C)[C@@H]12 (some centres not stated) | inactive: 32.1 µM |
| Cc1ccc(/N=C2\C(=O)C3=C(OC(C)(C)CC3)c3ccccc32)cc1 | inactive: 1.61 µM |
| CN(C)CCNc1ccc2nnn3c4ccccc4c(=O)c1c23 | inactive: 2.81 µM |
| COc1cc(C2C(Cl)C(=O)N2NC(=O)c2ccccc2O)ccc1O (configuration not stated) | inactive: > 100 µM |
